# From the supplement of paper PMC8728848
# The other results are listed elsewhere or left out.
# B1: LCA (Lens culinaris), P02870 (protein)
# chain: MASLQTQMISFYLIFLSILLTTIFFFKVNSTETTSFSITKFSPDQKNLIFQGDGYTTKGKLTLTKAVKSTVGRALYSTPIHIWDRDTGNVANFVTSFTFVIDAPSSYNVADEFTFFIAPVDTKPQTGGGYLGVFNSKEYDKTSQTVAVEFDTFYNAAWDPSNKERHIGIDVNSIKSVNTKSWNLQNGERANVVIAFNAATNVLTVTLTYPNSLEEENVTSYTLNEVVPLKDVVPEWVRIGFSATTGAEFAAHEVHSWSFHSELGGTSSSKQAADA
# What was measured:
# Assay in all cases: glycan array binding signal (z-score within array); higher = stronger binding
# Conditions in all cases: glycan notation: IUPAC condensed, linker removed
# [1] = molecular target: Neu5Ac(a2-6)Gal(b1-4)GlcNAc6S
# How it was run: (§1)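 Glycan array binding is given as a within-array Z-score, which can be read as non-binding when negative. The arrays, 3228 of them, came from the Consortium for Functional Glycomics database and were retained only where the protein sequence was available. Z-scores were averaged across arrays of the same protein sequence at different concentrations or buffers and across linkers.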
# Neu5Ac(a2-6)GalNAc = molecular target: Neu5Ac(a2-6)GalNAc
# How it was run: as §1
# [2] = molecular target: Neu5Ac(a2-6)GalNAc(b1-4)GlcNAc
# How it was run: as §1
# [3] = molecular target: Neu5Ac(a2-6)GalNAc(b1-4)GlcNAc6S
# How it was run: as §1
# [4] = molecular target: Neu5Ac(a2-6)GlcNAc(b1-4)GlcNAc
# How it was run: as §1
# [5] = molecular target: Neu5Ac(a2-6)GlcNAc(b1-4)GlcNAc(b1-4)GlcNAc
# How it was run: as §1
# Neu5Ac(a2-8)Neu5Ac = molecular target: Neu5Ac(a2-8)Neu5Ac
# How it was run: as §1
# [6] = molecular target: Neu5Ac(a2-8)Neu5Ac(a2-3)Gal(b1-3)GalNAc(b1-4)[Neu5Ac(a2-3)]Gal(b1-4)Glc
# How it was run: as §1
# [7] = molecular target: Neu5Ac(a2-8)Neu5Ac(a2-3)Gal(b1-3)GalNAc(b1-4)[Neu5Ac(a2-8)Neu5Ac(a2-3)]Gal(b1-4)Glc
# How it was run: as §1
# [8] = molecular target: Neu5Ac(a2-8)Neu5Ac(a2-3)Gal(b1-4)Glc
# How it was run: as §1
# [9] = molecular target: Neu5Ac(a2-8)Neu5Ac(a2-3)Gal(b1-4)GlcNAc
# How it was run: as §1
# [10] = molecular target: Neu5Ac(a2-8)Neu5Ac(a2-3)[Gal(b1-3)GalNAc(b1-4)]Gal(b1-4)Glc
# How it was run: as §1
# [11] = molecular target: Neu5Ac(a2-8)Neu5Ac(a2-3)[GalNAc(b1-4)]Gal(b1-4)Glc
# How it was run: as §1
# [12] = molecular target: Neu5Ac(a2-8)Neu5Ac(a2-8)Neu5Ac
# How it was run: as §1
# [13] = molecular target: Neu5Ac(a2-8)Neu5Ac(a2-8)Neu5Ac(a2-3)Gal(b1-4)Glc
# How it was run: as §1
# [14] = molecular target: Neu5Ac(a2-8)Neu5Ac(a2-8)Neu5Ac(a2-3)[Gal(b1-3)GalNAc(b1-4)]Gal(b1-4)Glc
# How it was run: as §1
# [15] = molecular target: Neu5Ac(a2-8)Neu5Ac(a2-8)Neu5Ac(a2-3)[GalNAc(b1-4)]Gal(b1-4)Glc
# How it was run: as §1
# [16] = molecular target: Neu5Ac(a2-8)Neu5Ac(a2-8)Neu5Ac(a2-8)Neu5Ac(a2-3)[GalNAc(b1-4)]Gal(b1-4)Glc
# How it was run: as §1
# [17] = molecular target: Neu5Ac(a2-8)Neu5Gc(a2-3)Gal(b1-4)GlcNAc
# How it was run: as §1
# Neu5Ac(b1-6)GalNAc = molecular target: Neu5Ac(b1-6)GalNAc
# How it was run: as §1
# [18] = molecular target: Neu5Ac(b2-6)Gal(b1-4)GlcNAc
# How it was run: as §1
# Neu5Ac(b2-6)GalNAc = molecular target: Neu5Ac(b2-6)GalNAc
# How it was run: as §1
# [19] = molecular target: Neu5Ac9Ac(a2-3)Gal(b1-3)GlcNAc
# How it was run: as §1
# [20] = molecular target: Neu5Ac9Ac(a2-3)Gal(b1-4)GlcNAc
# How it was run: as §1
# [21] = molecular target: Neu5Ac9Ac(a2-6)Gal(b1-4)GlcNAc
# How it was run: as §1
# [22] = molecular target: Neu5Gc(a2-3)Gal(b1-3)GlcNAc
# How it was run: as §1
# [23] = molecular target: Neu5Gc(a2-3)Gal(b1-3)[Fuc(a1-4)]GlcNAc
# How it was run: as §1
# Neu5Gc(a2-3)Gal(b1-4)Glc = molecular target: Neu5Gc(a2-3)Gal(b1-4)Glc
# How it was run: as §1
# [24] = molecular target: Neu5Gc(a2-3)Gal(b1-4)GlcNAc
# How it was run: as §1
# [25] = molecular target: Neu5Gc(a2-3)Gal(b1-4)GlcNAc(b1-3)Gal(b1-4)GlcNAc(b1-2)Man(a1-3)[Neu5Gc(a2-3)Gal(b1-4)GlcNAc(b1-3)Gal(b1-4)GlcNAc(b1-2)Man(a1-6)]Man(b1-4)GlcNAc(b1-4)GlcNAc
# How it was run: as §1
# [26] = molecular target: Neu5Gc(a2-3)Gal(b1-4)[Fuc(a1-3)]GlcNAc
# How it was run: as §1
# [27] = molecular target: Neu5Gc(a2-6)Gal(b1-4)GlcNAc
# How it was run: as §1
# Neu5Gc(a2-6)GalNAc = molecular target: Neu5Gc(a2-6)GalNAc
# How it was run: as §1
# [28] = molecular target: Neu5Gc(a2-8)Neu5Ac(a2-3)Gal(b1-4)GlcNAc
# How it was run: as §1
# [29] = molecular target: Neu5Gc(a2-8)Neu5Gc(a2-3)Gal(b1-4)GlcNAc
# How it was run: as §1
# [30] = molecular target: Neu5Gc(a2-8)Neu5Gc(a2-3)Gal(b1-4)GlcNAc(b1-3)Gal(b1-4)GlcNAc
# How it was run: as §1
# [31] = molecular target: Neu5Gc(a2-8)Neu5Gc(a2-6)Gal(b1-4)GlcNAc
# How it was run: as §1
# [32] = molecular target: Neu5Gc(b2-6)Gal(b1-4)GlcNAc
# How it was run: as §1
binder,measurement,setting,value
B1,glycan array binding signal (z-score),[1],-0.23
same,glycan array binding signal (z-score),Neu5Ac(a2-6)GalNAc,-0.232
same,glycan array binding signal (z-score),[2],-0.233
same,glycan array binding signal (z-score),[3],-0.258
same,glycan array binding signal (z-score),[4],-0.232
same,glycan array binding signal (z-score),[5],-0.231
same,glycan array binding signal (z-score),Neu5Ac(a2-8)Neu5Ac,-0.217
same,glycan array binding signal (z-score),[6],-0.268
same,glycan array binding signal (z-score),[7],-0.192
same,glycan array binding signal (z-score),[8],-0.26
same,glycan array binding signal (z-score),[9],-0.237
same,glycan array binding signal (z-score),[10],-0.222
same,glycan array binding signal (z-score),[11],-0.23
same,glycan array binding signal (z-score),[12],-0.222
same,glycan array binding signal (z-score),[13],-0.167
same,glycan array binding signal (z-score),[14],-0.237
same,glycan array binding signal (z-score),[15],-0.054
same,glycan array binding signal (z-score),[16],-0.183
same,glycan array binding signal (z-score),[17],-0.196
same,glycan array binding signal (z-score),Neu5Ac(b1-6)GalNAc,-0.223
same,glycan array binding signal (z-score),[18],-0.229
same,glycan array binding signal (z-score),Neu5Ac(b2-6)GalNAc,-0.246
same,glycan array binding signal (z-score),[19],-0.217
same,glycan array binding signal (z-score),[20],-0.012
same,glycan array binding signal (z-score),[21],-0.209
same,glycan array binding signal (z-score),[22],-0.238
same,glycan array binding signal (z-score),[23],-0.207
same,glycan array binding signal (z-score),Neu5Gc(a2-3)Gal(b1-4)Glc,-0.226
same,glycan array binding signal (z-score),[24],-0.219
same,glycan array binding signal (z-score),[25],-0.193
same,glycan array binding signal (z-score),[26],-0.232
same,glycan array binding signal (z-score),[27],-0.177
same,glycan array binding signal (z-score),Neu5Gc(a2-6)GalNAc,-0.234
same,glycan array binding signal (z-score),[28],-0.225
same,glycan array binding signal (z-score),[29],-0.258
same,glycan array binding signal (z-score),[30],-0.218
same,glycan array binding signal (z-score),[31],-0.243
same,glycan array binding signal (z-score),[32],-0.181
